The target of test [1] is T1, human interferon β (human, UniProt P01574 22-187). The experiment in a line: cell-based or functional assay.
Test [2] addresses T1, human interferon β. Nature of the test: SPR (Biacore), fusion protein captured by anti-human Fc, interferon injected. (In general: SPR reads the build-up and loss of mass on a sensor chip optically.)

What is called Kd is the free concentration of one partner at which half of the binding sites on the other are occupied at equilibrium, for simple one-to-one binding.

B1: R2-Fc (SEQ ID NO:8) (Fc fusion)
chain: RSISYDSPDYTDESCTFKISLRNFRSILSWELKNHSIVPTHYTLLYTIMSKPEDLKVVKNCANTTRSFCDLTDEWRSTHEAYVTVLEGFSGNTTLFSCSHNFWLAIDMSFEPPEFEIVGFTNHINVMVKFPSIVEEELQFDLSLVIEEQSEGIVKKHKPEIKGNMSGNFTYIIDKLIPNTNYCVSVYLEHSDEQAVIKSPLKCTLLPPGQESESAESA[… human IgG1 Fc with C220G (EU numbers) …]
notes: It describes Fc fusions as forming multimers (a dimer in a specific embodiment), but gives no copy number for the tested protein
With B1, in test [1], the “IC50, ISRE-luciferase assay in HEK 293 cells, 50 pM ligand” value was 5.48e-08 M. The same molecule had a Kd in test [2] of 8.3 nM.

B2: R2-R1-Fc (SEQ ID NO:6) (Fc fusion)
chain: RSISYDSPDYTDESCTFKISLRNFRSILSWELKNHSIVPTHYTLLYTIMSKPEDLKVVKNCANTTRSFCDLTDEWRSTHEAYVTVLEGFSGNTTLFSCSHNFWLAIDMSFEPPEFEIVGFTNHINVMVKFPSIVEEELQFDLSLVIEEQSEGIVKKHKPEIKGNMSGNFTYIIDKLIPNTNYCVSVYLEHSDEQAVIKSPLKCTLLPPGQESESAESAKRSKNLKSPQKVEVDIIDDNFILRWNRSDESVGNVTFSFDYQKTGMDNWIKLSGCQNITSTKCNFSSLKLNVYEEIKLRIRAEKENTSSWYEVDSFTPFRKAQIGPPEVHLEAEDKAIVIHISPGTKDSVMWALDGLSFTYSLVIWKNSSGVEERIENIYSRHKIYKLSPETTYCLKVKAALLTSWKIGVYSPVHCIKTTVENELPPPENIEVSVQNQNYVLKWDYTYANMTFQVQWLHAFLKRNPGNHLYKWKQIPDCENVKTTQCVFPQNVFQKGIYLLRVQASDGNNTSFWSEEIKFDTEIQAFLLPPVFNIRSLSDSFHIYIGAPKQSGNTPVIQDYPLIYEIIFWENTSNAERKIIEKKTDVTVPNLKPLTVYCVKARAHTMDEKLNKSSVFSDAVCEKTKPGNTS[… human IgG1 Fc with C220G (EU numbers) …]
notes: No copy number is stated for the tested protein (a dimer in a specific embodiment); also called parental R2-R1-Fc; R2 27-243-R1 28-436-Fc
Consider B2, for which the “IC50, ISRE-luciferase assay in HEK 293 cells, 50 pM ligand” value in test [1] amounted to 8.31e-11 M. In test [2], the Kd is 0.0399 nM.

B3: R2(35-233)-R1(28-335)-Fc (SEQ ID NO:9) (Fc fusion)
chain: RSTDESCTFKISLRNFRSILSWELKNHSIVPTHYTLLYTIMSKPEDLKVVKNCANTTRSFCDLTDEWRSTHEAYVTVLEGFSGNTTLFSCSHNFWLAIDMSFEPPEFEIVGFTNHINVMVKFPSIVEEELQFDLSLVIEEQSEGIVKKHKPEIKGNMSGNFTYIIDKLIPNTNYCVSVYLEHSDEQAVIKSPLKCTLLPPGRSKNLKSPQKVEVDIIDDNFILRWNRSDESVGNVTFSFDYQKTGMDNWIKLSGCQNITSTKCNFSSLKLNVYEEIKLRIRAEKENTSSWYEVDSFTPFRKAQIGPPEVHLEAEDKAIVIHISPGTKDSVMWALDGLSFTYSLVIWKNSSGVEERIENIYSRHKIYKLSPETTYCLKVKAALLTSWKIGVYSPVHCIKTTVENELPPPENIEVSVQNQNYVLKWDYTYANMTFQVQWLHAFLKRNPGNHLYKWKQIPDCENVKTTQCVFPQNVFQKGIYLLRVQASDGNNTSFWSEEIKFDTEIQAFLLPPSG[… human IgG1 Fc …]
Turning to B3, binding in test [2] was put at a Kd of 0.00829 nM.
